Measured values published in CN113388028A (SHENZHEN FUTIAN GEWU ZHIKANG PATHOGEN RES INSTITUTE; …, dated 2021).

Target: S1RBD-his (SARS-CoV-2 S1蛋白RBD与His的融合蛋白) (SARS-CoV-2)

B1: human ACE2-hFc([…]) (Fc fusion)
chain: not shown
Kd: 13.9 nM
koff: 0.00373 s⁻¹
kon: 268000 M⁻¹ s⁻¹
